Laboratory results from PMC4336329 (PLoS ONE, 2015).
Out of some 310,000 compounds screened, about 14,000 (4.5%) showed an effect of 50% or more. The effect is printed as a negative number. The list shows a part of the results.

These molecules were tested against human ether-à-go-go-related gene (hERG) potassium channel (human, UniProt Q12809) (assay: primary screen, population patch clamp on CHO cells stably expressing hERG).
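Also: peak tail current of the secondary pulse compared with the same well before compound.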

Chain of human ether-à-go-go-related gene (hERG) potassium channel (Q12809 whole entry, looked up): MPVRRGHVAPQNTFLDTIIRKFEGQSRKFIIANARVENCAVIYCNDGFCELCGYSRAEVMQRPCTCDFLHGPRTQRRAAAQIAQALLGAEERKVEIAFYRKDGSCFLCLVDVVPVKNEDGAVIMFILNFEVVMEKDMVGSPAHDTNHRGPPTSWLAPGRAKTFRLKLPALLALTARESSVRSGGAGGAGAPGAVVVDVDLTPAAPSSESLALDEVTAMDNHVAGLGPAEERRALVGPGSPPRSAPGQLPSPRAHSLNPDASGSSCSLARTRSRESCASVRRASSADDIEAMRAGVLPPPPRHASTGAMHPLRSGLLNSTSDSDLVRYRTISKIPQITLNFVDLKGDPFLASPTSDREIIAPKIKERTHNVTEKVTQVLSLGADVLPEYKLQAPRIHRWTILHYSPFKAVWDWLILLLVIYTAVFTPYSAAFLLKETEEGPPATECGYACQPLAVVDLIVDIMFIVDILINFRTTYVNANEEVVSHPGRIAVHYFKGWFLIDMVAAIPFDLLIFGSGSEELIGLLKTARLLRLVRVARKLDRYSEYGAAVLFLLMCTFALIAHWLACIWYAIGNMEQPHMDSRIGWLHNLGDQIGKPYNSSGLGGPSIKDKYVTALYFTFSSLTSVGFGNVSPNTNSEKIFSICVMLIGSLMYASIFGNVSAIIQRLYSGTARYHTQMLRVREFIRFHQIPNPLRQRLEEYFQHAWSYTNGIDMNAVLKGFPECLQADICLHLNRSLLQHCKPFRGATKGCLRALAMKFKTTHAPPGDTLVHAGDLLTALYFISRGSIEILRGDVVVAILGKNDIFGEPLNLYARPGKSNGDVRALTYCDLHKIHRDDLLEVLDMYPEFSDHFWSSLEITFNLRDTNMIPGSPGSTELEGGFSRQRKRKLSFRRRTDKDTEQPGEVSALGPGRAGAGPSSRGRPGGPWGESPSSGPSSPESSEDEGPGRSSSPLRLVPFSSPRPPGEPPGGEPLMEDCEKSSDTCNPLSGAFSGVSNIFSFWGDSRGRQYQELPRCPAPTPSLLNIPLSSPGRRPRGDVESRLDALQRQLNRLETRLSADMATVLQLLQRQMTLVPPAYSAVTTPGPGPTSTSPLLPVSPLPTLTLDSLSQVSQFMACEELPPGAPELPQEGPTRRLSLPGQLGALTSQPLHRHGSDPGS

| Structure (SMILES) | hERG current change (%, negative = inhibition) at 10uM |
| --- | --- |
| Cc1ccc(N(C)C(=O)C2CCCN2S(=O)(=O)c2cccc3nsnc23)cc1 (stereo not shown) | 1.28% |
| COc1ccc(CN2CCN(C(=O)c3ccco3)CC2)cc1OCc1ccccc1 | -51.2% |
| c1ccc2c(-c3nn4nnnc4c4ccccc34)cccc2c1 | -5.2% |
| CCCCOCCCn1c(-c2ccco2)nc2nc3ccccc3nc21 | -55.9% |
| Cc1cc(=O)[nH]c(SCC(=O)c2c(N)n(C)c(=O)n(C)c2=O)n1 | 12.6% |
| CCc1nc(N2CCCCC2C(=O)O)c2oc3ccccc3c2n1 (stereo not shown) | 17.9% |
| O=C(CN1CCCc2ccccc21)N/N=C/c1ccccc1 | -23.8% |
| CCOC(=O)c1cc2c(=O)n3ccccc3nc2n(Cc2ccco2)c1=NC(=O)c1ccc(OC)cc1OC | -54.2% |
| C=CCSc1nc(N)c(C#N)c(-c2ccccc2)c1C#N | 2.45% |
| Cc1cc(C(=O)N2CCN(c3cc(Cl)ccc3C)CC2)on1 | -58.7% |
| COC(=O)CCc1c(C)nc(N)[nH]c1=O | 14.4% |
| Cc1ncc(CO)c(/C=N/NC(=O)c2ccccc2Br)c1O | 16.1% |
| Cc1c(C(=O)Nc2cccc(S(=O)(=O)N3CCCC3)c2)oc2ccccc12 | 5.98% |
| COc1ccc(CCN(C(=O)c2snc(C(N)=O)c2N)C(C)C(=O)NC2CCCCC2)cc1OC (stereo not shown) | -13.9% |
| O=C(Cn1c(-c2ccccc2)noc1=O)N1CCC(Cc2ccccc2)CC1 | -41.5% |
| Cc1cc(C)n(-c2ccc(NC(=O)C3CCN(Cc4cnc(C)s4)CC3)cc2)n1 | -10.1% |
| O=C1NC(=O)/C(=C/c2cccc3ccccc23)S1 | 18.4% |
| CCCC(=O)N(Cc1cc2ccccc2[nH]c1=O)c1ccccc1OC | 10.2% |
| CC(C)c1ccc(OCc2nc(-c3ccccn3)no2)c(Br)c1 | -10.6% |
| COCCn1c(SCC(=O)Nc2ccccc2OC)nc2ccccc21 | -25.4% |
| C=CCn1c(N)c(C(=O)NCCC2=CCCCC2)sc1=S | 12.3% |
| Cn1cc([N+](=O)[O-])c(C(=O)Nc2cc(Oc3cccnc3)cc([N+](=O)[O-])c2)n1 | -11.2% |

| Structure (SMILES) | hERG current change (%, negative = inhibition) at 10uM |
| --- | --- |
| CS(=O)(=O)N1CCN(C(=O)c2cc(-c3cccs3)nc3ccccc23)CC1 | -17.3% |
| Cc1cccc(C(=O)N(Cc2nc3ccccc3c(=O)[nH]2)C2CCCC2)c1 | -3.16% |
| CCOc1cccc(C(=O)Nc2ccc3[nH]ncc3c2)c1 | 27.9% |
| Cc1ccc(NC(=S)N2CCN(c3ccccn3)CC2)c(C)c1 | 6.92% |
| O=C1c2ccccc2C(=O)N1CCOc1ccccc1Br | 14.8% |
| COc1cc(C2NC(=O)NC(C)=C2C(=O)OCc2ccc(C)cc2)cc(OC)c1OC (stereo not shown) | 7.38% |
| Cc1ccc(C)c(CSc2nnc(-c3cccnc3)o2)c1 | 0.791% |
| COc1ccc(-c2nc(CS(=O)CC(=O)N3CCOCC3)c(C)o2)cc1OC (stereo not shown) | 9.9% |
| Cc1nc(C)c(-c2csc(Nc3ccccn3)n2)s1 | -11.5% |
| CC(=O)Nc1ccc(C(=S)NCc2ccco2)cc1 | -9.31% |
| Cc1ccc(OCCn2c(CCCO)nc3ccccc32)cc1 | -7.79% |
| COC(=O)[C@@]12CCCN1[C@H](c1ccc(-c3ccc4c(c3)OCO4)c(OC)c1)[C@H]1C(=O)N(C)C(=O)[C@H]12.O=C(O)C(F)(F)F | -18% |
| CCc1c(C)nc(N2CCOCC2)[nH]c1=O | -13.2% |
| Cc1cc(C)n(-c2ccc(C(=O)Nc3cccc(S(=O)(=O)N(C)C)c3)cc2)n1 | -28.6% |
| CCSc1nc(N)c(C#N)c(-c2ccccc2Cl)c1C#N | 7.74% |
| Cc1ccccc1NC(=O)NCc1ccccn1 | 11.3% |
| CCCCOc1ccc(CC2CCC(=O)NC2=O)cc1 (stereo not shown) | -5.94% |
| COc1ccc(/C=N/N2C(=O)CSC2=S)cc1Br | -7.24% |
| COc1ccc(S(=O)(=O)N(CCC#N)Cc2ccco2)cc1OC | 17.8% |
| Cc1cccc([C@@H]2[C@@H]3C(=O)N(Cc4ccccc4)C(=O)[C@@H]3[C@]3(Cc4ccc(Cl)cc4)C(=O)N(c4ccc(Br)cc4)C(=O)N23)c1 | 32.7% |
| O=C1CCC(C(=O)N2CCCC(C(=O)c3ccc4c5c(cccc35)CC4)C2)=NN1 (stereo not shown) | -17.9% |
| O=C(COC(=O)CNS(=O)(=O)c1ccc(F)c(F)c1F)Nc1ccc(OC(F)F)cc1 | -65.2% |

| Structure (SMILES) | hERG current change (%, negative = inhibition) at 10uM |
| --- | --- |
| O=C(CN1C(=O)C2(OCCO2)c2cc(Br)ccc21)NO | 17.2% |
| CC[C@H]1CC2CN3CCc4c([nH]c5cc(OC)ccc45)[C@](C(=O)OC)(C2)[C@H]13 | -16.4% |
| COc1ccccc1NC(=O)CSc1nn2c(=O)c(C)nnc2s1 | 21.6% |
| COc1ccccc1NC(=O)Cc1nnc(SCC(=O)Nc2ccc(F)cc2F)n1C | 4.21% |
| CC/C(C)=N/Nc1ccc(S(=O)(=O)N2CCCC2)cc1[N+](=O)[O-] | -1.75% |
| Cc1ccc(C(=O)CSc2nc(C)cc(C)c2C(N)=O)cc1 | -7.88% |
| CCC(C)[C@H](NC(=O)N1CC(=O)Nc2ccccc21)C(=O)N[C@H](Cc1c[nH]c2ccccc12)C(=O)O (stereo partly shown) | 21.7% |
| CCN1CCN(c2nc3ccccc3nc2NS(=O)(=O)c2ccc(NC(C)=O)cc2)CC1 | 5.21% |
| COCCCn1c(C(=O)Nc2ccc3c(c2)OCO3)cc2c(=O)n3ccccc3nc21 | 8.51% |
| N#Cc1cnc2ncnn2c1-c1ccccc1 | 13.1% |
| Cc1c(NC(=O)c2ccco2)cccc1-c1nc2cccnc2s1 | -45.8% |
| COCCn1c(CN2CC(C)CC(C)C2)nc2c1c(=O)n(C)c(=O)n2C (stereo not shown) | -7.28% |
| Cc1cc(C)c(NC(=O)c2ccccc2C(=O)c2ccccc2)c(C)c1 | 3.62% |
| COc1ccc(-c2nc(-c3cccs3)c(-c3cccs3)[nH]2)cc1OC | 13% |
| CC1CCN(CC(=O)Nc2cccc(C(=O)Nc3cccc(C(F)(F)F)c3)c2)CC1 | -37.3% |
| COc1cc(CNCc2ccco2)cc(OC)c1O.Cl | 25.4% |
| CCCCCCOc1cccc(N)c1 | 7.31% |
| CCCc1cc(=O)oc2cc(OC3CCCCC3=O)ccc12 (stereo not shown) | 4.74% |
| CCC(C)C12CN3CCN(CC(C)(C3)C1=O)C2 (stereo not shown) | 11.2% |
| CC(=O)Nc1ccccc1NC(=O)c1cc(C)ccc1C | 26.9% |
| O=C(Nc1ccccc1F)c1cc2c(s1)-c1ccccc1S(=O)(=O)C2 | 0.504% |
| O=S(=O)(c1ccc(F)cc1)N1CCCN(Cc2c(F)cccc2F)CC1 | -23.9% |

| Structure (SMILES) | hERG current change (%, negative = inhibition) at 10uM |
| --- | --- |
| CCOc1ccccc1C(=O)N[C@H](C(=O)OCc1cc(=O)oc2cc(C)ccc12)C(C)C | -10.2% |
| CC(Cc1ccccc1)NC(=S)CN1CCCC1=S (stereo not shown) | 20.9% |
| C=CCc1ccc(OCCCOc2ccc(C)cc2OC)c(OC)c1 | 22.2% |
| CCCOc1ccccc1NC(=O)c1c(-c2ccccc2)noc1C | 12.1% |
| COc1ccc(/C=N/NC(=O)C(C)n2cnc3ccccc3c2=O)cc1OC (stereo not shown) | -11% |
| CC(C)NC(=O)c1ccccc1NC(=O)C1CCCO1 (stereo not shown) | 6.05% |
| O=C(NCc1ccc(Cl)cc1)C1CCC(CNc2c(N3CCCC3)c(=O)c2=O)CC1 (stereo not shown) | 1.34% |
| Cc1cccc(N/C=C(\[N+](=O)[O-])S(=O)(=O)c2ccccc2)c1C | 3.02% |
| CCc1ccccc1NC(=O)c1cnc2n(c1=O)CCS2 | 14% |
| Cc1cccc(C(=O)c2c(N)sc3c2CCCC3)c1 | -3.48% |
| Cc1ccc(O)c(CNc2ccccn2)c1 | -1.23% |
| COc1ccc(Sc2ccc(NC(=O)c3ccccc3Cl)cc2C#N)cc1 | 7.73% |
| Cc1cc(OC(=O)c2cc([N+](=O)[O-])ccc2Cl)c([N+](=O)[O-])c(=O)[nH]1 | 2.78% |
| CCCCCCCC(=O)Nc1ccc(C(=O)N/N=C/c2cccc([N+](=O)[O-])c2)cc1 | 15.5% |
| COc1ccc(CCN2CC(C#N)=C3c4cc(OC)c(OC)cc4CCN3C2)cc1OC | -29.8% |
| CCCCc1c(O)nc(SCCN(C)C)n(-c2ccccc2)c1=O | 10.1% |
| CCC(Oc1ccccc1)C(=O)Nc1ccccc1N1CCCC1 (stereo not shown) | -0.829% |
| O=C(Nc1cc2c(oc1=O)CCCC2=O)c1cccc(Cl)c1 | 4.61% |
| O=C(Nc1ccccc1)C1=C(O)CC(c2ccc(Cl)cc2)N2CCN=C12 (stereo not shown) | -31.3% |
| Cc1ccccc1/C=N/n1c(COc2ccccc2)n[nH]c1=S | 26.7% |
| Cc1cc(C)c(-c2c(O)c3c(n(C)c2=O)CC(C)(C)CC3=O)c(C)c1 | -3.02% |
| O=C(CCl)Nc1c(C(=O)Nc2ccc3c(c2)OCCO3)oc2ccccc12 | 12% |
